From the supplement of paper PMC6089552
Screen size: about 3,200 compounds; about 300 (9.4%) showed activity. The list shows a part of the results, in another mix than the full data.

System: A673/TR/shEF
Experiment: cell viability (LOESS-normalised, relative to median of negative controls) (log2 ratio); higher = more viable cells (less compound effect), active = hit call of the paper (over 3 MAD below the median)
Details: treatment time: 72 h
In short: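 A673/TR/shEF Ewing sarcoma cells were plated at 1,500 per well in 384-well plates and cultured with or without doxycycline, added 24 h before compounds, to induce EWS-FLI1 shRNA knockdown. Library compounds at two or more concentrations, alongside DMSO controls, were applied for three days. Cell viability was measured by CellTiter-Glo luminescence on an Envision reader. Readings were LOESS-corrected per plate, divided by the median of negative controls and log2-transformed, and hits were wells lying at least three median absolute deviations from the median of all screened wells.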

[1] = 0.25 µM, library screen: screen1, EWS-FLI1 expression: high (no doxycycline)
[2] = 0.25 µM, library screen: screen1, EWS-FLI1 expression: low (doxycycline-induced shRNA knockdown)
[3] = 2.5 µM, library screen: screen1, EWS-FLI1 expression: high (no doxycycline)
[4] = 2.5 µM, library screen: screen1, EWS-FLI1 expression: low (doxycycline-induced shRNA knockdown)
[5] = 0.103 µM, library screen: screen3, EWS-FLI1 expression: high (no doxycycline)
[6] = 0.103 µM, library screen: screen3, EWS-FLI1 expression: low (doxycycline-induced shRNA knockdown)
[7] = 0.308 µM, library screen: screen3, EWS-FLI1 expression: high (no doxycycline)
[8] = 0.308 µM, library screen: screen3, EWS-FLI1 expression: low (doxycycline-induced shRNA knockdown)
[9] = 0.926 µM, library screen: screen3, EWS-FLI1 expression: high (no doxycycline)
[10] = 0.926 µM, library screen: screen3, EWS-FLI1 expression: low (doxycycline-induced shRNA knockdown)
[11] = 2.8 µM, library screen: screen3, EWS-FLI1 expression: high (no doxycycline)
[12] = 2.8 µM, library screen: screen3, EWS-FLI1 expression: low (doxycycline-induced shRNA knockdown)
[13] = 8.3 µM, library screen: screen3, EWS-FLI1 expression: high (no doxycycline)
[14] = 8.3 µM, library screen: screen3, EWS-FLI1 expression: low (doxycycline-induced shRNA knockdown)
[15] = 25 µM, library screen: screen3, EWS-FLI1 expression: high (no doxycycline)
[16] = 25 µM, library screen: screen3, EWS-FLI1 expression: low (doxycycline-induced shRNA knockdown)
[17] = 0.25 µM, library screen: screen2, EWS-FLI1 expression: high (no doxycycline)
[18] = 0.25 µM, library screen: screen2, EWS-FLI1 expression: low (doxycycline-induced shRNA knockdown)
[19] = 2.5 µM, library screen: screen2, EWS-FLI1 expression: high (no doxycycline)
[20] = 2.5 µM, library screen: screen2, EWS-FLI1 expression: low (doxycycline-induced shRNA knockdown)

`C[C@H]1O[C@@H](O[C@H]2[C@@H](O)C[C@H](O[C@H]3[C@@H](O)C[C@H](O[C@H]4CC[C@@]5(C)[C@H](CC[C@@H]6[C@@H]5C[C@@H](O)[C@]5(C)[C@@H](C7=CC(=O)OC7)CC[C@]65O)C4)O[C@@H]3C)O[C@@H]2C)C[C@H](O)[C@@H]1O` was tested, and the “cell viability (log2)” value [1] was inactive: -0.0229, the “cell viability (log2)” value [2] was inactive: -0.153 and the “cell viability (log2)” value [3] was active: -2.32. The “cell viability (log2)” value [4] was active: -1.91.

`CC(C)=CCC[C@@H](C)[C@H]1CC[C@@]2(C)C3=C(CC[C@]12C)[C@@]1(C)CC[C@H](O)C(C)(C)[C@@H]1CC3` was tested, and the “cell viability (log2)” value [1] was inactive: 0.101, the “cell viability (log2)” value [2] was inactive: -0.00557 and the “cell viability (log2)” value [3] was inactive: 0.158. For the same compound, the “cell viability (log2)” value [4] was inactive: 0.0178.

With `O=c1ccc2cc(O)c(O)cc2o1` the “cell viability (log2)” value [1] was inactive: -0.014, the “cell viability (log2)” value [2] was inactive: 0.0916 and the “cell viability (log2)” value [3] was inactive: 0.128. For the same compound, the “cell viability (log2)” value [4] was inactive: 0.0922.

`C[C@H](CCC(=O)O)[C@H]1CC[C@H]2[C@@H]3[C@H](O)C[C@@H]4C[C@H](O)CC[C@]4(C)[C@H]3C[C@H](O)[C@]12C` was tested, and the “cell viability (log2)” value [1] was inactive: 0.0945, the “cell viability (log2)” value [2] was inactive: 0.0736 and the “cell viability (log2)” value [3] was inactive: 0.133. The “cell viability (log2)” value [4] was inactive: 0.116.

With `O=C(OCC(O)CO)c1ccccc1Nc1ccnc2cc(Cl)ccc12` (stereo unspecified) the “cell viability (log2)” value [1] was inactive: 0.0611, the “cell viability (log2)” value [2] was inactive: 0.0198 and the “cell viability (log2)” value [3] was inactive: 0.156. For the same compound, the “cell viability (log2)” value [4] was inactive: 0.0175.

For `Cc1cc(O)c2c(c1)C(=O)c1cccc(O)c1C2=O`, the “cell viability (log2)” value [1] was inactive: 0.0882, the “cell viability (log2)” value [2] was inactive: 0.1 and the “cell viability (log2)” value [3] was inactive: 0.0643. For the same compound, the “cell viability (log2)” value [4] was inactive: 0.0809.

`NC(=O)c1cn(Cc2c(F)cccc2F)nn1` was tested, and the “cell viability (log2)” value [5] was inactive: 0.0918, the “cell viability (log2)” value [6] was inactive: 0.0809 and the “cell viability (log2)” value [7] was inactive: 0.113. For the same compound, the “cell viability (log2)” value [8] was inactive: 0.087, the “cell viability (log2)” value [9] was inactive: 0.0716 and the “cell viability (log2)” value [10] was inactive: 0.0801. For the same compound, the “cell viability (log2)” value [11] was inactive: 0.0643, the “cell viability (log2)” value [12] was inactive: 0.0783 and the “cell viability (log2)” value [13] was inactive: 0.0937. The “cell viability (log2)” value [14] was inactive: 0.0955, the “cell viability (log2)” value [15] was inactive: 0.164 and the “cell viability (log2)” value [16] was inactive: 0.0617.

In the case of `COc1cc2c(N3CCN(C(=O)Nc4ccc(OC(C)C)cc4)CC3)ncnc2cc1OCCCN1CCCCC1`, the “cell viability (log2)” value [5] is reported as inactive: -0.0129, the “cell viability (log2)” value [6] is reported as inactive: -0.0538 and the “cell viability (log2)” value [7] is reported as inactive: -0.0428. For the same compound, the “cell viability (log2)” value [8] was inactive: -0.0392, the “cell viability (log2)” value [9] was inactive: -0.0343 and the “cell viability (log2)” value [10] was inactive: -0.0604. For the same compound, the “cell viability (log2)” value [11] was inactive: 0.0597, the “cell viability (log2)” value [12] was inactive: 0.0175 and the “cell viability (log2)” value [13] was inactive: 0.0441. For the same compound, the “cell viability (log2)” value [14] was inactive: 0.0441, the “cell viability (log2)” value [15] was inactive: -0.0915 and the “cell viability (log2)” value [16] was inactive: 0.0601.

With `CC(C(=O)O)c1ccc(-c2ccccc2)c(F)c1` (stereo unspecified) the “cell viability (log2)” value [5] was inactive: 0.121, the “cell viability (log2)” value [6] was inactive: 0.068 and the “cell viability (log2)” value [1] was inactive: 0.12. For the same compound, the “cell viability (log2)” value [2] was inactive: -0.0943, the “cell viability (log2)” value [7] was inactive: 0.102 and the “cell viability (log2)” value [8] was inactive: 0.12. For the same compound, the “cell viability (log2)” value [9] was inactive: 0.113, the “cell viability (log2)” value [10] was inactive: 0.145 and the “cell viability (log2)” value [3] was inactive: 0.214. The “cell viability (log2)” value [4] was inactive: 0.0375, the “cell viability (log2)” value [11] was inactive: 0.00771 and the “cell viability (log2)” value [12] was inactive: 0.108. The “cell viability (log2)” value [13] was inactive: 0.0867, the “cell viability (log2)” value [14] was inactive: 0.0898 and the “cell viability (log2)” value [15] was inactive: 0.0301. The “cell viability (log2)” value [16] was inactive: 0.127.

`COc1ccccc1N(C(N)=O)c1nc(-c2cccnc2)nc2ccccc12` was tested, and the “cell viability (log2)” value [17] was inactive: 0.155, the “cell viability (log2)” value [18] was inactive: 0.0439 and the “cell viability (log2)” value [19] was inactive: 0.275. The “cell viability (log2)” value [20] was inactive: 0.0633.

With `COc1ccccc1N1CCN(CCCCN2C(=O)c3ccccc3C2=O)CC1` the “cell viability (log2)” value [17] was inactive: 0.04, the “cell viability (log2)” value [18] was inactive: 0.096 and the “cell viability (log2)” value [19] was inactive: 0.126. The “cell viability (log2)” value [20] was inactive: 0.0323.

In the case of `C=C1C2=CC(=O)O[C@@H](c3ccoc3)[C@]2(C)CCC1[C@@]1(C)C=CC(=O)C(C)(C)[C@@H]1CC(=O)OC` (stereo partly specified), the “cell viability (log2)” value [1] is reported as inactive: 0.0212, the “cell viability (log2)” value [2] is reported as inactive: -0.0342 and the “cell viability (log2)” value [3] is reported as inactive: -0.0229. For the same compound, the “cell viability (log2)” value [4] was inactive: 0.0744.

With `Cc1cccc(C)c1OCC(C)N` (stereo unspecified) the “cell viability (log2)” value [17] was inactive: 0.132, the “cell viability (log2)” value [18] was inactive: 0.0816 and the “cell viability (log2)” value [19] was inactive: 0.195. The “cell viability (log2)” value [20] was inactive: 0.0671.

In the case of `COc1cc(C)c2c(c1C=O)Oc1c(c(C)c(O)c3c1C(O)OC3=O)OC2=O` (stereo unspecified), the “cell viability (log2)” value [1] is reported as inactive: 0.0345, the “cell viability (log2)” value [2] is reported as inactive: 0.132 and the “cell viability (log2)” value [3] is reported as inactive: 0.154. For the same compound, the “cell viability (log2)” value [4] was inactive: 0.0527.

In the case of `CC[C@]1(O)C[C@H]2CN(CCc3c([nH]c4ccccc34)[C@@](C(=O)OC)(c3cc4c(cc3OC)N(C=O)[C@H]3[C@@](O)(C(=O)OC)[C@H](OC(C)=O)[C@]5(CC)C=CCN6CC[C@]43[C@@H]65)C2)C1`, the “cell viability (log2)” value [5] is reported as active: -3.56, the “cell viability (log2)” value [6] is reported as active: -0.748 and the “cell viability (log2)” value [17] is reported as active: -2.87. For the same compound, the “cell viability (log2)” value [18] was active: -0.436, the “cell viability (log2)” value [7] was active: -3.82 and the “cell viability (log2)” value [8] was active: -0.668. For the same compound, the “cell viability (log2)” value [9] was active: -3.92, the “cell viability (log2)” value [10] was active: -0.728 and the “cell viability (log2)” value [19] was active: -2.88. For the same compound, the “cell viability (log2)” value [20] was active: -0.517, the “cell viability (log2)” value [11] was active: -3.8 and the “cell viability (log2)” value [12] was active: -0.704. The “cell viability (log2)” value [13] was active: -3.93, the “cell viability (log2)” value [14] was active: -0.847 and the “cell viability (log2)” value [15] was active: -3.66. For the same compound, the “cell viability (log2)” value [16] was active: -0.84.

`COc1ccccc1OCC(O)CO` (stereo unspecified) was tested, and the “cell viability (log2)” value [5] was inactive: 0.0395, the “cell viability (log2)” value [6] was inactive: 0.0626 and the “cell viability (log2)” value [1] was inactive: 0.0769. For the same compound, the “cell viability (log2)” value [2] was inactive: 0.0685, the “cell viability (log2)” value [7] was inactive: 0.0622 and the “cell viability (log2)” value [8] was inactive: 0.0684. For the same compound, the “cell viability (log2)” value [9] was inactive: 0.0429, the “cell viability (log2)” value [10] was inactive: 0.0992 and the “cell viability (log2)” value [3] was inactive: 0.235. The “cell viability (log2)” value [4] was inactive: -0.0232, the “cell viability (log2)” value [11] was inactive: 0.104 and the “cell viability (log2)” value [12] was inactive: 0.0405. For the same compound, the “cell viability (log2)” value [13] was inactive: 0.0621, the “cell viability (log2)” value [14] was inactive: 0.0553 and the “cell viability (log2)” value [15] was inactive: 0.0205. For the same compound, the “cell viability (log2)” value [16] was inactive: 0.0447.
